IC50 is the fitted dose that halves viability relative to control wells, and lower means more sensitive; a limit (>, <) means that the fit lies beyond the doses tested. AUC sums up the same curve from the lowest dose to the 256-fold higher top dose; the more sensitive the line, the further below 1. A top dose marked as inferred was calculated from the reported fits.

The text below walks through data of the supplement of paper PMC4967469.

Compound in this assay: N.N.[Cl][Pt][Cl] [Cisplatin]
Kind of assay: Viability of human cancer cell lines after 72 h of drug (GDSC screen). The following applies: top dose inferred. Here is the method: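 Human cancer cell lines in 384-well plates, medium with 10% serum, drug for 72 h over a 256-fold dose range (nine 2-fold or five 4-fold steps up to the top dose). Adherent lines were fixed and stained with the nucleic acid dye Syto60, suspension lines read with resazurin; signal relative to control wells, capped at 0 and 100%. One two-parameter sigmoid per drug and line, fitted in a mixed model over all curves with the slope shared within a line.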
Regarding “HSC-39 (stomach, suspension, top dose 10 µM)”, the AUC was found to be 0.96 and the IC50 is above 10 µM.

As for “HT55 (large intestine, adherent, top dose 10 µM)”, the AUC is 0.973 and the IC50 was above 10 µM.

Regarding “HT (B-cell lymphoma, suspension, top dose 10 µM)”, the AUC was 0.986 and the IC50 is above 10 µM.

For HT-3 (cervix, adherent, top dose 10 µM), the AUC stood at 0.8 and the IC50 was 4.94 µM.

Regarding “HT-115 (large intestine, adherent, top dose 10 µM)”, the AUC is 0.961 and the IC50 was above 10 µM.

On to “HT-1080 (fibrosarcoma, adherent, top dose 10 µM)”, for which the AUC worked out at 0.873 and the IC50 stood at 7.89 µM.

Regarding “HT-1197 (bladder, adherent, top dose 10 µM)”, the AUC turned out to be 0.933 and the IC50 was above 10 µM.

For “HT-1376 (bladder, adherent, top dose 10 µM)”, the AUC was determined as 0.925 and the IC50 is above 10 µM.

Take “HUTU-80 (digestive system, adherent, top dose 10 µM)”: the AUC was 0.919 and the IC50 was above 10 µM.

For the cell line “Hep 3B2_1-7 (liver, adherent, top dose 10 µM)”, the AUC was determined as 0.905 and the IC50 is above 10 µM.

Turning to Hey (ovary, adherent, top dose 10 µM), the AUC turned out to be 0.918 and the IC50 is above 10 µM.

As to “Hs633T (fibrosarcoma, adherent, top dose 10 µM)”, the AUC is 0.805 and the IC50 was determined as 3.98 µM.

Regarding “Hs683 (glioma, adherent, top dose 10 µM)”, the AUC was determined as 0.945 and the IC50 was above 10 µM.

As for “Hs746T (stomach, adherent, top dose 10 µM)”, the AUC was 0.868 and the IC50 is above 10 µM.

Regarding “Hs766T (pancreas, adherent, top dose 10 µM)”, the AUC is 0.885 and the IC50 was above 10 µM.

As for “Hs939-T (melanoma, adherent, top dose 10 µM)”, the AUC is 0.899 and the IC50 is above 10 µM.

For the cell line “Hs-578-T (breast, adherent, top dose 10 µM)”, the AUC came to 0.886 and the IC50 is above 10 µM.

With “HuCCT1 (biliary tract, adherent, top dose 10 µM)”, the AUC worked out at 0.944 and the IC50 is above 10 µM.

Turning to HuH-7 (liver, adherent, top dose 10 µM), the AUC came to 0.91 and the IC50 is above 10 µM.

On to “HuO9 (osteosarcoma, adherent, top dose 10 µM)”, for which the AUC stood at 0.857 and the IC50 came out at 9.65 µM.

“HuO-3N1 (osteosarcoma, adherent, top dose 10 µM)”: the AUC turned out to be 0.903 and the IC50 is above 10 µM.

With “HuP-T3 (pancreas, adherent, top dose 10 µM)”, the AUC was 0.901 and the IC50 was above 10 µM.

As for “HuP-T4 (pancreas, adherent, top dose 10 µM)”, the AUC came out at 0.833 and the IC50 amounted to 7.03 µM.

“IA-LM (large cell lung carcinoma, adherent, top dose 10 µM)”: the AUC came to 0.903 and the IC50 was above 10 µM.

Take “IGR-1 (melanoma, adherent, top dose 10 µM)”: the AUC is 0.956 and the IC50 was above 10 µM.

As for “IGR-37 (melanoma, adherent, top dose 10 µM)”, the AUC worked out at 0.865 and the IC50 stood at 7.58 µM.

For the cell line “IGROV-1 (ovary, adherent, top dose 10 µM)”, the AUC worked out at 0.877 and the IC50 was above 10 µM.

Regarding “IHH-4 (thyroid, semi-adherent, top dose 10 µM)”, the AUC stood at 0.8 and the IC50 was found to be 3.76 µM.

Consider “IM-9 (myeloma, suspension, top dose 10 µM)”, for which the AUC came out at 0.946 and the IC50 is above 10 µM.

For the cell line “IMR-5 (neuroblastoma, adherent, top dose 10 µM)”, the AUC turned out to be 0.843 and the 50% inhibitory concentration (IC50) is 5.5 µM.

Turning to “IPC-298 (melanoma, adherent, top dose 10 µM)”, the AUC was 0.928 and the IC50 was above 10 µM.

Take “IST-MEL1 (melanoma, adherent, top dose 10 µM)”: the AUC worked out at 0.889 and the IC50 is above 10 µM.

For the cell line “IST-SL1 (small cell lung carcinoma, semi-adherent, top dose 10 µM)”, the AUC was 0.951 and the IC50 is above 10 µM.

In the case of “IST-SL2 (small cell lung carcinoma, suspension, top dose 10 µM)”, the AUC was 0.946 and the 50% inhibitory concentration (IC50) is above 10 µM.

As to “JEG-3 (urogenital system, adherent, top dose 10 µM)”, the AUC came to 0.856 and the IC50 amounted to 6.84 µM.

On to “JEKO-1 (B-cell lymphoma, suspension, top dose 10 µM)”, for which the AUC came out at 0.96 and the IC50 was above 10 µM.

As for JHH-1 (liver, adherent, top dose 10 µM), the AUC worked out at 0.967 and the IC50 was above 10 µM.

As to JHH-2 (liver, adherent, top dose 10 µM), the AUC was determined as 0.938 and the IC50 was above 10 µM.

For the cell line JHH-4 (liver, adherent, top dose 10 µM), the AUC amounted to 0.887 and the half-maximal inhibitory concentration (IC50) is above 10 µM.

For the cell line JHH-6 (liver, adherent, top dose 10 µM), the AUC turned out to be 0.783 and the IC50 came out at 4.28 µM.

Regarding JHH-7 (liver, adherent, top dose 10 µM), the AUC was 0.887 and the IC50 was above 10 µM.

Consider “JHOS-2 (ovary, adherent, top dose 10 µM)”, for which the AUC was 0.946 and the IC50 was above 10 µM.

With “JHOS-3 (ovary, adherent, top dose 10 µM)”, the AUC is 0.933 and the IC50 was above 10 µM.

Turning to “JHOS-4 (ovary, adherent, top dose 10 µM)”, the AUC came to 0.872 and the IC50 was above 10 µM.

With “JHU-011 (head and neck, adherent, top dose 10 µM)”, the AUC worked out at 0.803 and the IC50 is 4.87 µM.

For the cell line “JHU-022 (head and neck, adherent, top dose 10 µM)”, the AUC was determined as 0.879 and the IC50 was above 10 µM.

“JHU-029 (head and neck, adherent, top dose 10 µM)”: the AUC turned out to be 0.735 and the IC50 turned out to be 3.47 µM.

Take “JIMT-1 (breast, adherent, top dose 10 µM)”: the AUC is 0.891 and the IC50 is above 10 µM.

Take “JJN-3 (haematopoietic neoplasm, suspension, top dose 10 µM)”: the AUC stood at 0.981 and the IC50 was above 10 µM.

Consider “JM1 (B-cell lymphoma, suspension, top dose 10 µM)”, for which the AUC amounted to 0.812 and the IC50 amounted to 4.45 µM.

As to “JSC-1 (B-cell lymphoma, suspension, top dose 10 µM)”, the AUC worked out at 0.926 and the IC50 is above 10 µM.

Consider “JURL-MK1 (chronic myeloid leukaemia, suspension, top dose 10 µM)”, for which the AUC turned out to be 0.781 and the IC50 came out at 4.12 µM.

Take “JVM-2 (lymphoid neoplasm, suspension, top dose 10 µM)”: the AUC turned out to be 0.864 and the IC50 was above 10 µM.

“JVM-3 (lymphoid neoplasm, suspension, top dose 10 µM)”: the AUC was 0.738 and the IC50 amounted to 3.03 µM.

In the case of “JiyoyeP-2003 (Burkitt lymphoma, suspension, top dose 10 µM)”, the AUC is 0.978 and the IC50 is above 10 µM.

For “Jurkat (T-cell leukaemia, suspension, top dose 10 µM)”, the AUC is 0.949 and the concentration for half-maximal inhibition (IC50) is above 10 µM.

For the cell line K2 (melanoma, adherent, top dose 10 µM), the AUC is 0.885 and the IC50 is above 10 µM.

As to K5 (thyroid, adherent, top dose 10 µM), the AUC turned out to be 0.781 and the IC50 is 3.97 µM.

With “KARPAS-45 (lymphoblastic leukaemia, suspension, top dose 10 µM)”, the AUC amounted to 0.986 and the half-inhibitory concentration (IC50) was above 10 µM.

On to “KARPAS-231 (B-cell leukaemia, suspension, top dose 10 µM)”, for which the AUC was found to be 0.822 and the IC50 amounted to 4.18 µM.

Turning to “KARPAS-299 (anaplastic large cell lymphoma, suspension, top dose 10 µM)”, the AUC was determined as 0.819 and the IC50 is 4.5 µM.

For “KARPAS-422 (B-cell lymphoma, suspension, top dose 10 µM)”, the AUC was 0.978 and the IC50 was above 10 µM.

With “KARPAS-620 (haematopoietic neoplasm, suspension, top dose 10 µM)”, the AUC was determined as 0.991 and the IC50 was above 10 µM.

As for “KARPAS-1106P (B-cell lymphoma, suspension, top dose 10 µM)”, the AUC came to 0.949 and the IC50 is above 10 µM.

As for “KASUMI-1 (acute myeloid leukaemia, suspension, top dose 10 µM)”, the AUC was 0.949 and the IC50 was above 10 µM.

On to “KATOIII (stomach, semi-adherent, top dose 10 µM)”, for which the AUC was found to be 0.959 and the IC50 was above 10 µM.

For the cell line “KCL-22 (chronic myeloid leukaemia, suspension, top dose 10 µM)”, the AUC turned out to be 0.961 and the IC50 is above 10 µM.
